In experiment [1] the target is T1, SUVR2-Flag (Arabidopsis) (UniProt Q9FNC7).
T1 sequence: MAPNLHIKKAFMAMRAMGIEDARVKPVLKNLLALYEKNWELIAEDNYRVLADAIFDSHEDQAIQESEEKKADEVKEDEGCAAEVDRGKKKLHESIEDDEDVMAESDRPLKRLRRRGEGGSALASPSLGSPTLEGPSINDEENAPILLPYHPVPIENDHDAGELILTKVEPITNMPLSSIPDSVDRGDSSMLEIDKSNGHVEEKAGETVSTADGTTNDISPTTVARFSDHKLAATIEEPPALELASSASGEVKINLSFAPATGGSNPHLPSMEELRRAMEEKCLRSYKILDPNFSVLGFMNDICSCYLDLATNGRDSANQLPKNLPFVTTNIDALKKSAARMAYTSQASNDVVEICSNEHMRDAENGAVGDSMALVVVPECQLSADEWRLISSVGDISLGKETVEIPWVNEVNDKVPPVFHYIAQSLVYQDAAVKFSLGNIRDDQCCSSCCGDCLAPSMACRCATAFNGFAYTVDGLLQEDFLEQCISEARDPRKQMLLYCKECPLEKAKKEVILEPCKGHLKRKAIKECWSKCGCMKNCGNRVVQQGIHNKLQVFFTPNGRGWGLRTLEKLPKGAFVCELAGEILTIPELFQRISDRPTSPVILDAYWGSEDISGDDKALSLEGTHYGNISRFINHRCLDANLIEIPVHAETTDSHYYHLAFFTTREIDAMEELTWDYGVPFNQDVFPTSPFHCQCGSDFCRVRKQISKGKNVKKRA
Nature of the experiment: co-IP; protein extracts of Arabidopsis plants harboring two tagged proteins; anti-c-Myc agarose, anti-Flag M1 agarose or anti-AGO4 conjugated agarose; western blotting.

Chains of the proteins cited; added tags and fusions are not shown.
UniProt Q94A79: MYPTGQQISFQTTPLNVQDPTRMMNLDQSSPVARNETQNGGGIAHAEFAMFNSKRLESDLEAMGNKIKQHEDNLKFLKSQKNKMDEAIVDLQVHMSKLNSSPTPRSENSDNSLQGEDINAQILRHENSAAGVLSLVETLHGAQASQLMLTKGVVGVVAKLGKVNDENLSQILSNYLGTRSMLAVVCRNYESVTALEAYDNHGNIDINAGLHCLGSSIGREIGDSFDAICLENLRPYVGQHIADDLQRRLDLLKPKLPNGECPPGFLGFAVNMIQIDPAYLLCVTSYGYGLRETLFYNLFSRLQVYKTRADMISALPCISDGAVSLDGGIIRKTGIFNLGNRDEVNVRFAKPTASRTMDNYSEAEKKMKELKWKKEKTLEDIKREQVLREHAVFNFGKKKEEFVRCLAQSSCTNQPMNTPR

Experiment [2] concerns the target T1, SUVR2-Flag (Arabidopsis). Nature of the experiment: co-IP; protein extracts of Arabidopsis transgenic plants (or F1 hybrids with two tagged proteins); precipitated with anti-c-Myc agarose, anti-Flag M1 agarose or anti-AGO4 conjugated agarose; western blotting.
The target in experiment [3] is T2, SUVR2-Myc (Arabidopsis) (UniProt Q9FNC7).
T2 sequence: T1 sequence
Nature of the experiment: co-IP; protein extracts of Arabidopsis plants harboring two tagged proteins; anti-c-Myc agarose, anti-Flag M1 agarose or anti-AGO4 conjugated agarose; western blotting. (In general: Immunoblotting shows a protein as a band on a membrane.)

Experiment [4] concerns the target T2, SUVR2-Myc (Arabidopsis). Nature of the experiment: SEC; gel filtration of plant protein; elution profiles of SUVR2-Myc, SUVR2-Flag, SUVR1-Flag, CHR19-Myc detected by western blotting with anti-Myc and anti-Flag antibody. (Size exclusion chromatography separates by hydrodynamic size, large species first.)

Results are given in words; binding and its absence hold for the method and conditions named. For some of these results: Binding seen in cells or lysates may run through a third protein. Some results given as binding are weak or reduced against the parent protein; the word gives no strength. Tags and fused reporters may be left off the sequences shown.

Take DMS3 (from UniProt Q94A79 1-420): the binding entry in experiment [1] and in experiment [2] was “no binding” in each case.

B1: SUVR1-Flag (protein, UniProt Q946J2 1-734)
chain: MAPNLRIKKACDAMKLLGISETKTRAFLRKLLKTYENNWDFIEEDAYKVLLDAIFDEADAQSTEKNKKEEEKKKKEEEKKSRSVATSRGRRKAPEPLVQDEEDDMDEDEFPLKRRLRSRRGRASSSSSSSSSYNNEDLKTQPEEEDEDDGVTELPPLKRYVRRNGERGLAMTVYNNASPSSSSRLSMEPEEVPPMVLLPAHPMETKVSEASALVILNDEPNIDHKPVISDTGNCSAPMLEMGKSNIHVQEWDWETKDILNDTTAMDVSPSSAIGESSEHKVAAASVELASSTSGEAKICLSFAPATGETTNLHLPSMEDLRRAMEEKCLKSYKIVHPEFSVLGFMKDMCSCYIDLAKNSTSQLLETETVCDMSKAGDESGAVGISMPLVVVPECEISGDGWKAISNMKDITAGEENVEIPWVNEINEKVPSRFRYMPHSFVFQDAPVIFSLSSFSDEQSCSTSCIEDCLASEMSCNCAIGVDNGFAYTLDGLLKEEFLEARISEARDQRKQVLRFCEECPLERAKKVEILEPCKGHLKRGAIKECWFKCGCTKRCGNRVVQRGMHNKLQVFFTPNGKGWGLRTLEKLPKGAFICEYIGEILTIPELYQRSFEDKPTLPVILDAHWGSEERLEGDKALCLDGMFYGNISRFLNHRCLDANLIEIPVQVETPDQHYYHLAFFTTRDIEAMEELAWDYGIDFNDNDSLMKPFDCLCGSRFCRNKKRSTKTMQILNKA
Take B1: the binding entry in experiment [3] and in experiment [4] was “binds” throughout.

For the origin of these results see publication PMC4260354.
